Measured values published in the supplement of paper PMC11417369.
This is one part of the list.

What follows are sequences tested on PfAP2-HC AP2 domain (GST-tagged) (assay: gcPBM binding intensity (ln(normalized median fluorescence intensity)); higher = stronger DNA binding).
Procedure, shortened: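 GST-tagged P. falciparum DNA-binding domains, expressed in E. coli (about 25 μg on average), were applied for 1 h to an Agilent 4 × 180k array of primer-extended double-stranded 36-bp intergenic genomic probes plus negative controls. The binding buffer was 1× PBS with 1% milk, 0.2 mg/ml BSA, 0.5% salmon testes DNA and 0.03% Triton X-100. Bound protein was detected with Alexa488 anti-GST antibody and scanned at 488 nm. Binding intensity is the highest Masliner-normalised natural-log median intensity across replicate spots of either probe orientation.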

Row | Sequence | gcPBM binding intensity (ln)
1 | AAAGAAAGAAGAAATTGTACATAATAAATAAGTAAA [XGTACX_site3311] | 9.63
2 | ATATAAACAATATTTTGTACATAATTTTATGAGCAT [XGTACX_site6933] | 9.68
3 | GCATATGTTTATTGCACACACCAAAAAGAAAACATA [CACACA_site4384] | 9.95
4 | AAAAAGAACAGAAACACACAAATAAAATAAAATTGT [CACACA_site6921] | 10.3
5 | AAATGTTAATAAAGGTGTACACAAAATAAAAAAAAT [XGTACX_site463] | 10.5
6 | TTAATTGACATAAAAAGTACTCATATAGATATGCAC [XGTACX_site6391] | 9.54
7 | TAATTTTATTTTATATGTACGCAATACAAATATATA [XGTACX_site8461] | 9.46
8 | ATAAAAATAAAAAGTGTGCACACAAAAATATATATA [GTGCAC_site9931] | 10.5
9 | TTACCAAAAAAATGTAGTACAATATAATATTATTTA [XGTACX_site5750] | 9.5
10 | AATATATATATTTAAGTGCATAATATTGTAATATTA | 9.74
11 | ATATATTATGAAGACTGTACATTTACATGAAAAAAA [XGTACX_site7203] | 9.65
12 | CACCCCCACAGACACACACACACACCCATATATATA [CACACA_site364] | 10.6
13 | AAGATTCATTGGTTCTGTACAAAATAAACACTATAA [XGTACX_site834] | 9.52
14 | ATATATAATTAATTTTGTACACATAAAAAAAAAAAT [XGTACX_site6647] | 9.69
15 | AGAGAGAAAGCTATAACATGCAACAATTTTTTGAAA [TGCATGCA_site514] | 9.57
16 | ATATTTGCATGTGGTAGTACATAACATTCTTTTACA [XGTACX_site8194] | 9.75
17 | ATATCTTATAATACGGTGCACTTGACATGAACAACT [GTGCAC_site9987] | 9.68
18 | CTTCAATTAAAATTCACACATATAAATTAAAATATT [CACACA_site6129] | 9.43
19 | ACATATTATATATGTGTGCACATATATATATATTTA [GTGCAC_site9591] | 10.1
20 | TTTATTTAAAAAGTTTGTACATATATATTATTTTGA [XGTACX_site6040] | 9.45
21 | AATTTATTATTTTATTGTACGTATTTTTTTTTTTAT [XGTACX_site2298] | 9.76
22 | AAAAAATATTAGACTTATAAAGCATAAAGGATATTA [GTGCAC_negctrl_site588] | 9.6
23 | CATATATAAATATATACACACATACATACATACATA [CACACA_site5988] | 10.6

Row | Sequence | gcPBM binding intensity (ln)
24 | ATATTATAGTTATGAACATGCAAACATTACGAAATA [TGCATGCA_site54] | 9.69
25 | TTTATATATATAATATGTACACATAATAATAATACA [XGTACX_site4862] | 9.29
26 | AAATGACATTTCAAAAGTACATATTTAATTAATTAA [XGTACX_site2919] | 9.51
27 | TTAAATATAAAAAGTAGTACATTTATATTTACCATA [XGTACX_site2962] | 9.41
28 | AAAAAACGACCTTACGCACACATTATTCTAGTCTAT [CACACA_site2349] | 9.99
29 | TCAAATTATATGAGTGGTACACATGTAATATTTTTA [XGTACX_site6518] | 9.67
30 | AAAAAAATATATATTACACACATATATACATATATA [CACACA_site3125] | 9.78
31 | ATATTTTGTATAATCACACACACTATTATTAAATAG [CACACA_site2612] | 10.2
32 | TTACATTTTTTATGTTTTTTTATATTGCAAAAAAAT [CACACA_negctrl_site1050] | 9.46
33 | ATATATATATATATATGTACTTATTAAGATTAAAAA [XGTACX_site61] | 9.6
34 | ATATTTCATCTAGCTACACACATATAACAAATTACT [CACACA_site7843] | 9.91
35 | TACATAAAAATATCACGTACATATAATCATATACTA [XGTACX_site3505] | 9.57
36 | ACCTTTGATATATACACACACATAAAAAAAATATAT [CACACA_site6952] | 10.1
37 | AAAAAAAAAAAAAAAACACACATACACCCCCACCCA [CACACA_site9117] | 10.2
38 | TATAAATATAAATACACACACACATCAATACAGATA [CACACA_site5850] | 11
39 | ATTAATAATATTCCTTGTACATGATTTTTCTAAATA [XGTACX_site7099] | 9.54
40 | TGTGTTAATAGAAAAAGTACATATACATATATATAT [XGTACX_site4951] | 9.65
41 | TGCACAGACGGACACACACACAACTAAAAAATAATG [CACACA_site5424] | 10.7
42 | TATAATAATGCCTTTACATGCAATAATAAAGAAATA [TGCATGCA_site631] | 9.55
43 | AATGAATTAATAGCTACACACGGTAACATAATAACT [CACACA_site851] | 9.92
44 | TCTTTTGAACAAATTTGTACGTATATAAAAATATTT [XGTACX_site6547] | 9.54
45 | TATAAATACTTATATGTACACACATATAGATATATA [CACACA_site8819] | 9.64
46 | CGCATACACCAACACACACACACATATATATATATA [CACACA_site635] | 10.5

Row | Sequence | gcPBM binding intensity (ln)
47 | AGAAGTCTGTAATGATGTACTGGAAAAATATAAATA [XGTACX_site8148] | 9.56
48 | TAGATCTTATTTACAAGTACATATATACGATTCATT [XGTACX_site7578] | 9.54
49 | ATCTAATATATATTCTGTACGTAATTAAAACCACAA [XGTACX_site3152] | 9.53
50 | ATGTTGTCAAAAAAATGTACTTACATAATATTTTCC [XGTACX_site1732] | 9.53
51 | ATATATATATATATTTGTACATATATATAATTTTTC [XGTACX_site7460] | 9.53
52 | TATAATTGTCTTCACACACACATATATATATATATA [CACACA_site2743] | 10.1
53 | AAAATAAAAAAAAAAGGTACACAAAAAGATGGACTG [XGTACX_site2650] | 9.77
54 | TTTTTTTTTTAAAAAACACACACCTAAACAAGATAT [CACACA_site875] | 10
55 | AAATTAATTAAATATACACACATATATAAATATATA [CACACA_site391] | 9.99
56 | ATATATATATAAAGTTGTACATTTTTTATTTTTTCA [XGTACX_site7847] | 9.6
57 | TTGTTTTTAGTTTATACACACCATATTAATATAATG [CACACA_site7452] | 9.86
58 | ATTTGGCATGGACACACACACACACCGACAGACATA [CACACA_site4491] | 11.4
59 | TTATATTATGGACACACACACAAAAAAAAAAAAAAA [CACACA_site7744] | 10.3
60 | TATATATATATGTATACACACATATGTATGTTATGT [CACACA_site4053] | 9.91
61 | GCATAATATACTCTTACACACCATTTCTATATACAT [CACACA_site6799] | 10
62 | TTTGTTAATTATAAATGTACATATTATATATATATA [XGTACX_site8870] | 9.56
63 | TTAAAACCAAAACACAGTACATATATATATATATAT [XGTACX_site5668] | 9.61
64 | CAATTTTAAGTAATCAATTTTTTTAAAAAACACAAA [CACACA_negctrl_site961] | 9.39
65 | AAAATATATTATATATGTACATATTACGTTTTAATT [XGTACX_site2518] | 9.79
66 | TTAATATTAATATATTGTACATATATGCACATATTT [XGTACX_site6569] | 9.74
67 | AATATTATAATATAAACACACAAAATTCAATTATAT [CACACA_site3789] | 9.95
68 | AACGTTCATATTTCCACACACAAAAAATAAATATAA [CACACA_site3344] | 10
69 | AAAAATAAAGGGCGAAAAAAAAAAAAAAAAAAAAAA [GTGCAC_negctrl_site671] | 8.69

Row | Sequence | gcPBM binding intensity (ln)
70 | CTTGTATTTAAACACACACACACTTTCTTTTTTTAA [CACACA_site5133] | 10.5
71 | TTGATGATATAAAAAAGTACTTATATTATATTATAT [XGTACX_site6492] | 9.55
72 | TTTCCTATTTAATATAGTACATAAGAAATAATTTTA [XGTACX_site5952] | 9.18
73 | ATATTTTATTATTGTTGTACTTTTTTTTGATTGTTT [XGTACX_site4090] | 9.88
74 | TTGACACGTATATGCACACACCCGTAAGTGTCCATT [CACACA_site2764] | 10
75 | TTTTTTATGAACACGTCACACATCATTAAAATGTTT [CACACA_site5934] | 9.67
76 | AGTTATAAACATATGTGTACTTATAAAAACATATAG [XGTACX_site3268] | 9.82
77 | TTTAATATTTTTCAATGTAGAAAGTTTGTCTGTTAT [CACACA_negctrl_site973] | 9.51
78 | TCACACATATATTCATGTACATATTAATATTTCCAT [XGTACX_site5387] | 9.85
79 | AAAAAAAGTAAATGTTGTACTATAATATGTAATATA [XGTACX_site7966] | 9.62
80 | AACCACATACATATAACACACATATACAATCTATAT [CACACA_site1987] | 10.4
81 | TACATATATATTATATGTACTTATATTTTTATAATA [XGTACX_site3452] | 9.61
82 | ATATACATATCCATATTTATATCTATATTTAAAACA [CACACA_negctrl_site747] | 9.49
83 | AAATAACACTAATGATGTACTCAACTATTTATAATT [XGTACX_site8183] | 9.66
84 | TATGAAATTTTAATTACACACAGGAAAATAAAATGG [CACACA_site4935] | 9.74
85 | TAAAAAAAATATTTTTGTACGAATTAAATTTTTTTT [XGTACX_site4838] | 9.35
86 | ACATATTTTTAATACACACTCAAAAAAGTACTTAAC [CACACA_site3014] | 9.69
87 | TATTTACACCTAATCACAAATAAAATAAAATCAAAT [CACACA_negctrl_site531] | 9.59
88 | ACATATAAATAAATAAATATATATATATATATATAT [GTGCAC_negctrl_site378] | 9.8
89 | TTTTTATAACTATATTATATAACTTTTGTACGAACT [CACACA_negctrl_site1423] | 9.8
